{"source": "PubChem BioAssay AID588855", "about": "(National Center for Advancing Translational Sciences (NCATS), 2011)", "note": "The campaign covered roughly 410,000 compounds. About 5,000 (1.2%) were called active. This list was built around the results that the source calls inconclusive (neither active nor inactive); the mix of calls is not that of the screen. Calls follow the shape of the dose curve; as a rule, active = well fitted inhibition curve with a large enough effect; inconclusive = small, poorly fitted or top-dose-only effect; inactive = no such curve, though single readings can be large or run the other way. A potency beside an inconclusive call is a rough fit, not a confirmed value. % is scaled to controls: 0 for no effect and ±100 for the full control effect; potency is read from the fitted curve at half-maximal effect; tags tell the direction and shape of the fitted curve."}
{"assay": "qHTS for Inhibitors of TGF-b; also: nearly all actives have a fitted effect of over 65% in size", "details": "HepG2 CAGA-GFP TGF-b/SMAD3 reporter, GFP fluorescence, 18 h, TGF-beta stimulated, 500 pg/mL final; series mostly up to 46.1 µM; activity, negative = inhibition: at the top concentration", "method_in_brief": "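HEPG2 CAGA-GFP cells (1000/well, DMEM with 1% FBS) were pre-incubated 2 h at 37 degrees C, given compound by pin tool, then stimulated with TGF-beta at 500 pg/mL final for 18 h before per-cell GFP fluorescence imaging.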"}
{"smiles": "O=c1c2ccccc2nc(/C=C/c2ccccc2)n1-c1ccccc1F", "Potency": "inconclusive: 12.6 µM [inhibitor, single point]"}
{"smiles": "C[C@]1(O)CCC2C3CC[C@H]4C[C@@H](OC(=O)[C@@H](N)CCCCN)CC[C@]4(C)C3CC[C@@]21C", "note": "(some centres not stated)", "activity, negative = inhibition": "inactive: -2.9%"}
{"smiles": "CCOC(=O)c1ccc(S(=O)(=O)n2c(=O)oc3ccccc32)cc1", "Potency": "inconclusive: 25.1 µM [inhibitor, single point]"}
{"smiles": "CCCCc1nc2ccccc2c(=O)n1-c1ccc(O)cc1", "Potency": "inconclusive: 1.58 µM [inhibitor, partial curve, poor fit]"}
{"smiles": "O=C(CCc1ccccc1)N1Cc2cc(N3CCCCC3)ccc2-n2nncc2C1", "Potency": "inconclusive: 11.2 µM [inhibitor, partial curve, poor fit]"}
{"smiles": "CCOc1ccc(NC(=O)c2ccc(F)c(S(=O)(=O)NCc3ccc4c(c3)OCO4)c2)cc1", "Potency": "inconclusive: 28.2 µM [inhibitor, partial curve, poor fit]"}
{"smiles": "O=C(O)c1ccccc1SCC(=O)N1c2ccccc2Sc2ccccc21", "Potency": "inconclusive: 11.2 µM [inhibitor, partial curve]"}
{"smiles": "CSCCC(c1nnnn1Cc1ccccc1)N1CCC2(CC1)C(=O)NCN2c1ccccc1", "note": "(configuration not stated)", "Potency": "inconclusive: 14.1 µM [inhibitor, single point]"}
{"smiles": "CCOC(=O)C(O)(c1ccc(NC(=S)NC(=O)c2ccc(Cl)cc2Cl)cc1)C(F)(F)F", "note": "(configuration not stated)", "activity, negative = inhibition": "inactive: 0%"}
{"smiles": "CCn1c(P(C)(=O)O)nc2ccccc21", "activity, negative = inhibition": "inactive: -6.19%"}
{"smiles": "CC(C)n1c(O)c(C2c3cc(Cl)ccc3Oc3[nH]c(=O)n(C(C)C)c(=O)c32)c(=O)[nH]c1=O", "note": "(configuration not stated)", "Potency": "active: 6.31 µM"}
{"smiles": "COC(=O)C1=C(c2c(C)noc2C)C[C@@H]2CC[C@H]1N2C(=O)N1CCCCC1", "activity, negative = inhibition": "inactive: -1.12%"}
{"smiles": "CC1OC(OC2C=C3CCC4C(CCC5(C)C(c6ccc(=O)oc6)CCC45O)C3(C)CC2)C(O)C(OC2OC(CO)C(O)C(O)C2O)C1O", "note": "(configuration not stated)", "Potency": "active: 0.398 µM"}
{"smiles": "Cc1cccc(NC(=S)N2CC3CC(C2)c2cccc(=O)n2C3)c1C", "note": "(configuration not stated)", "Potency": "inconclusive: 35.5 µM [inhibitor, single point]"}
{"smiles": "O=C1NC(=O)C(=Cc2cc(Cl)ccc2OCc2ccc(C(=O)O)cc2)C(=O)N1", "Potency": "inconclusive: 35.5 µM [inhibitor, single point]"}
{"smiles": "Cc1cccc(Cn2c(=O)n(Cc3ccc(C(=O)NC4CCN(Cc5ccccc5)CC4)cc3)c(=O)c3ccccc32)c1", "Potency": "inconclusive: 3.16 µM [inhibitor, single point]"}
{"smiles": "COC(=O)C1=C(c2cccc(OCc3ccccc3)c2)C[C@@H]2CC[C@H]1N2C(=O)NCCCc1ccccc1", "Potency": "inconclusive: 8.91 µM [inhibitor, partial curve, poor fit]"}
